Test results: PubChem BioAssay (Tox21)
The shares of active, inactive and inconclusive entries below differ from those in the screen. Where the call is inconclusive, the potency comes from a doubtful curve fit. Activity calls are given as the source filed them. The call rests on the fitted dose curve; in most records, active means well fitted cell-killing curve with a large enough effect in the repeat runs; inconclusive means weak or mixed curves, or effect the other way; inactive means no such curve, though single readings can be large or run the other way.

Assay: qHTS assay to identify small molecule antagonists of the peroxisome proliferator-activated receptor gamma (PPARg) signaling pathway - cell viability counter screen (AID 743194); further: nearly all actives have a fitted effect of over 55% in size
Conditions: PPARg-bla HEK293H viability, CellTiter-Glo luminescence, 17 h, co-treated with 50 nM rosiglitazone; activity change, negative = cytotoxicity: at 62.6 µM (top of the series) unless noted
Summary of the method: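 PPARg-UAS-bla HEK293H cells were plated, rested 5 h at 37 C, then treated with compounds plus rosiglitazone (50 nM final) for 17 h at 37 C; viability was then read by CellTiter-Glo luminescence after 30 min at room temperature.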
On the % scale 0 is the no-effect control and ±100 the full control effect; potency means the concentration at half of the fitted maximal effect; tags describe the fitted curve by direction and shape.

SMILES | activity change, negative = cytotoxicity | Potency
CC(N)CN (stereo unspecified) | inactive: 9.27% [at 81.1 µM] | 
C=COCCCCO | inactive: 19.7% | 
CCN(CC)CCOC(=O)C(c1ccccc1)C1CCCCC1 (stereo unspecified) |  | inconclusive: 0.0106 µM [cytotoxic, full curve, poor fit]
Cn1nnc2c(C(N)=O)ncn2c1=O | inactive: 1.78% | 
FC(F)(F)C(Cl)(Cl)Cl | inactive: -7.39% | 
CC(=O)Oc1ccc(C)cc1 |  | inconclusive: 13.3 µM [cytotoxic, single point]
